The values below come from paper PMC12136788.

Some of the results follow.

T1: UNK ZnF1-3 (human, UniProt Q9C0B0 31-174)
T1 sequence: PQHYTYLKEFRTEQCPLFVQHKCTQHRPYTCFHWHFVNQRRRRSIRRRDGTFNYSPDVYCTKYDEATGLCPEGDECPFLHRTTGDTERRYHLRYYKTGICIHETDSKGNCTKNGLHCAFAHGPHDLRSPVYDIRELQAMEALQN

B1: 38356352_38356472_726_CDS_ENSMUSG00000044864_ENSMUST00000156038|mouse|control|control (ssRNA)
RNA: GGGAGUUCUACAGUCCGACGAUCGCUCUUGAUGUGCAGCUGGUUCAGCGUCUCAGCCGUCUCCUUGGUGAGGUGCUGCCGCAGUGCCUCCUCUUGAUCCAGGCGGUGGAGGAUGUACUGCUGAACAUCCUUAACGAUAUAUGCCAACAGAGGAUUGAGCAUCA
B2: chr19:7501953:7501954:-_ENSMUSG00000024758_ENSMUST00000025667|mus_mus|motif|central (ssRNA)
RNA: GGGAGUUCUACAGUCCGACGAUCCGGAAGAAAUCCCACUCUUGCCCCAUACUAUUUAUUCAUAAGUUAAUCAUUAUUUCCGGACUUAAAAAUAAGGGCAAAAUUAUAAAUGGGAGCUGUAUACGAGUCCUUGGAACUGGAGAGCAACAGAGGAUUGAGCAUCA
B3: 96641269_96641389_1145_CDS_ENSG00000111145_ENST00000228741|human|control|control (ssRNA)
RNA: GGGAGUUCUACAGUCCGACGAUCUUUUUUGGCCUUUGGGGGAAGAGAUGGAGACUUGGUCUUGGAGCCCGAUGACAGGUUCAAGGGCUCCAGGGAAUCGGAGUCAUGGCAGGCGGCCUCCAGGAAGAGGCUUCUGUGUUCAGACAACAGAGGAUUGAGCAUCA
B4: 32247416_32247536_761_CDS_ENSG00000125967_ENST00000246190|human|control|control (ssRNA)
RNA: GGGAGUUCUACAGUCCGACGAUCGGAGGGUCCUCCCUUGUGGGGCCCUGGCCCCACGGCCCUCACCUUGCACUCGAGCUGGUCGAUGAGCUCCUGGAGGCGGUUCACCUGGAGCCGCCACUGCAUCUCGGCCUCUGAGCUGCGCAACAGAGGAUUGAGCAUCA
B5: 103549188_103549308_3251_CDS_ENSMUSG00000008730_ENSMUST00000118317|mouse|control|control (ssRNA)
RNA: GGGAGUUCUACAGUCCGACGAUCAAGGUUGAGUGGCUGCACCGCGCUGGCUCCCCCUCGCUGAGCCCGGUACCCCGUGGGAGUGAUACAGCAUCCAGAUGACUGCCCACUCACUGAGGCCACUGGCUUGGUCUUACUGCUAAGCAACAGAGGAUUGAGCAUCA
B6: chr7:19736620:19736621:-_ENSG00000105849_ENST00000222567|hu_mus|FALSE|FALSE (ssRNA)
RNA: GGGAGUUCUACAGUCCGACGAUCAAGAUGCUGGUUAUUUAUCUACCUGUACAUAUUAAAUUGCUGUCAUUCCUUAUGCUCUAUAUACCGUAGAUGAAGUCAAGAAACAUGGUUGCCAGAAUUUACUCCUUAUGAAACAUUAAGCAACAGAGGAUUGAGCAUCA
B7: chr18:34367003:34367004:-_ENSG00000134779_ENST00000590842|hu_hu|motif|central (ssRNA)
RNA: GGGAGUUCUACAGUCCGACGAUCCCUCAGCUCCCAUUGGAGGGGCUCAACAGCCAGUUUCCAGUGAACACAUUUUCUUCGGUUCAUUUUGAUAUUAUAAGUUAUCUUGGCCUGUGGGCUAAUGCCAUAGCUGGUGAAGGCAUACAACAGAGGAUUGAGCAUCA
B8: chr6:41757443:41757444:+_ENSG00000214736_ENST00000398881|hu_mus|hu_hu_hu_mus_False|28_98 (ssRNA)
RNA: GGGAGUUCUACAGUCCGACGAUCGAACCGUGCAGAGACCAGAGAAUAGCCGACACUGGGGGAUGGGGGGGCAGUGGGGGGGGGUUCAGGCAAGGAGAGGGAGUCAACCCAUCUGAACACUCAGGUAGGAUCUUGUGGUCACAGCAACAGAGGAUUGAGCAUCA
B9: 75144492_75145415_650_3pUTR_ENSMUSG00000021996_ENSMUST00000022573|mouse|control|control (ssRNA)
RNA: GGGAGUUCUACAGUCCGACGAUCAUUAGGAUGUCAAUCUGGGAACCCGAAUAGGCCUUCACGAGACAGGUCGCAUCGUAUGCCUUCCAUUUACUUUCAUCUGGUCCCAAAUAUCCACUAAAAGCUUUUUUGCCCCAAGAACACCAACAGAGGAUUGAGCAUCA
B10: chr22:19452774:19452775:-_ENSG00000070010_ENST00000399523|hu_hu|hu_hu_hu_mus_False|28_88 (ssRNA)
RNA: GGGAGUUCUACAGUCCGACGAUCCUUCUCAUUGUAGUUGAUAGCAAUCACAUCCCCAGUCGUCAGACAGGCGAAGUUUCUCAAUGCAUUUUCUAAUACCGCUUUAGGGUUGGUGAUAUCCAGGAAGUCUGGGCUCUGAGGCUGCAACAGAGGAUUGAGCAUCA
B11: chr4:115894766:115894767:+_ENSMUSG00000028698_ENSMUST00000030464|mus_hu|mus_mus_mus_hu_True|18_108 (ssRNA)
RNA: GGGAGUUCUACAGUCCGACGAUCUUCACACGGAAAUUGUACUUCGGGUUUUCCAACGGCCAGUACCAGUCCGGCCAAACUACCCGAACAGGGUCCUCCCCCUCUCUCCUACAGAACUAAAGCACCCGCCCCCGAACUUUCAAGCAACAGAGGAUUGAGCAUCA
B12: chr4:115894766:115894767:+_ENSMUSG00000028698_ENSMUST00000030464|mus_hu|mus_mus_mus_hu_True|18_78 (ssRNA)
RNA: GGGAGUUCUACAGUCCGACGAUCUUCCACACGGAAAUGUACUUCGGGUUUUCCAACGCCAGUACAAAGUCCGGCCAAACUACCCGAACAGGGUCCUCCCCCUCUCUCCUACAGAACUAAAGCACCCGCCCCCGAACUUUCAAGCAACAGAGGAUUGAGCAUCA
B13: chr2:26491064:26491065:+_ENSMUSG00000036186_ENSMUST00000074240|mus_mus|motif|central (ssRNA)
RNA: GGGAGUUCUACAGUCCGACGAUCGAAGUCCGCCAUGAGAAGUAUCUGGUCAACCAGCGCUGGCAGGGAAGGCAGGUCUCCGGAGUUAGCCUUGAGGAAGCUGAGGGUCAUCUCCCGGAACUCCUUGAUGGAAGUUCCCCUGGUCAACAGAGGAUUGAGCAUCA
B14: chr11:102700179:102700180:-_ENSMUSG00000020929_ENSMUST00000107060|mus_hu|FALSE|FALSE (ssRNA)
RNA: GGGAGUUCUACAGUCCGACGAUCGUAAUUGAGCACAACAUCCUGUUUGGCAAGUUCCAGCAACAUAGGAUCAUCGAAGAAUUUGCUGAUGCUCACAUCUUCACUGAGGCCCUUCCUACGGCGGGUUUUGAUCAUGAAUUCCCGCAACAGAGGAUUGAGCAUCA

For this experiment, the target named is T1, UNK ZnF1-3. Put plainly: nsRBNS (natural sequence RNA bind-n-seq); RBNS binding buffer (assumed for nsRBNS): 25 mM Tris pH 7.5, 150 mM KCl, 3 mM MgCl2, 0.01% Triton X-100, 500 ug/ml BSA, 20 U/ml SUPERase-In, 4 C; UNK is unkempt and MSI1 is Musashi-1; names of the RNAs are library labels; protein concentration not given here; high values mean tight binding.
As to B1, the binding signal was 0.546 enrichment R.

In the case of B2, the binding signal was 1.41 enrichment R.

Regarding B3, the binding signal came to 0.992 enrichment R.

As for B4, the binding signal amounted to 0.701 enrichment R.

As to B5, the binding signal stood at 1.38 enrichment R.

For the molecule B6, the binding signal worked out at 0.845 enrichment R.

For B7, the binding signal was 1.13 enrichment R.

For the molecule B8, the binding signal was determined as 2.6 enrichment R.

B9 registered a binding signal of 0.683 enrichment R.

Turning to B10, the binding signal is 0.837 enrichment R.

B11 came in with a binding signal of 1.07 enrichment R.

Molecule B12 had a binding signal of 1.01 enrichment R.

B13 displayed a binding signal of 0.967 enrichment R.

B14 returned a binding signal of 1.39 enrichment R.
